# According to PubChem BioAssay AID602310 (National Center for Advancing Translational Sciences (NCATS), 2012):
# Where “and” joins values, the source holds several entries; their conditions need not be identical. Identical values can stand only once. Screen size: about 410,000 compounds; about 310 (0.076%) were called active. Inconclusive means that the source gave no clear call. Such entries were picked first, then a sample of the others. The call rests on the fitted dose curve; in most records, active means well fitted curve in the direction sought with a large enough effect; inconclusive means small, poorly fitted or top-dose-only effect; inactive means flat fitted curve, though single readings scatter. Potencies beside an inconclusive call are fits to weak or partial responses and may not hold up.
# Biological target: DNA dC->dU-editing enzyme APOBEC-3G (Homo sapiens) (UniProt Q9HC16)
# Chain of UniProt Q9HC16 (Q9HC16 whole entry, looked up): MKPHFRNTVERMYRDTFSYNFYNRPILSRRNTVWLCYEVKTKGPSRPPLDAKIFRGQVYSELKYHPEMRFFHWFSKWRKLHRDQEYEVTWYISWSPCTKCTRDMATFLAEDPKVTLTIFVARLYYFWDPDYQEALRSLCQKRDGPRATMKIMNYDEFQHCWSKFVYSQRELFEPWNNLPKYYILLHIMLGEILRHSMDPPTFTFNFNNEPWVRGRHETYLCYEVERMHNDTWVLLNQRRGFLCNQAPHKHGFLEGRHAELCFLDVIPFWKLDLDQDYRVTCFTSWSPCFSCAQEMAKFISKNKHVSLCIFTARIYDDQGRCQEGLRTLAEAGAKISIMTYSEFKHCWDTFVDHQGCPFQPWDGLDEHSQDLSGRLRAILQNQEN
# Assay: qHTS for Inhibitors of Vif-A3G Interactions: qHTS; further: nearly all actives have a fitted effect of over 60% in size
# Details: HeLa A3G-eYFP + Vif (tagged APOBEC3G with the HIV-1 protein that degrades it), YFP fluorescence, overnight; series mostly up to 46.1 µM
# Procedure, shortened: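 Read-out is eYFP fluorescence (Ex 488/Em 500-530) from Vif-expressing HeLa A3G-eYFP cells; more signal means A3G escaped Vif-mediated degradation. Cells plated overnight, compound pinned in, incubated overnight at 37 deg C.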
# Potency means the concentration at half of the fitted maximal effect; tags describe the fitted curve by direction and shape.
row,Structure (SMILES),Potency
1,Cn1c(N)c(Sc2ccc([N+](=O)[O-])cc2)c(=O)n(C)c1=O,inactive
2,CC(=O)c1cccc(NC(=O)COC(=O)c2ccc(S(C)(=O)=O)c([N+](=O)[O-])c2)c1,"inconclusive: 35.5 µM [inhibitor, single point] and inconclusive: 35.5 µM [inhibitor, partial curve, poor fit]"
3,CSc1ccc(CNC(=O)CCn2c(=O)c3cccn3c3ccc(F)cc32)cc1,"inconclusive: 28.2 µM [inhibitor, single point]"
4,Cc1cccc(C)c1NC(=O)Cn1c(=O)n(Cc2ccco2)c(=O)c2ccc(C(=O)NC3CCCC3)cc21,inactive
5,COc1ccccc1-c1cc(C(F)(F)F)nc(S(C)(=O)=O)n1,"inconclusive: 28.2 µM [inhibitor, single point]"
6,O=S(=O)(c1ccccc1)n1ccc2ccccc21,inactive
7,CCC(=O)Nc1nonc1-c1nc2ccccc2n1Cc1ccccc1,"inconclusive: 10 µM [inhibitor, partial curve]"
8,Cc1ccc(-c2nnc(CSc3nnc(COc4ccccc4)n3-c3ccc(C)cc3)o2)cc1,inactive
9,COc1cccc(OCCCOc2ccc([N+](=O)[O-])cc2Cl)c1,"inconclusive: 5.62 µM [inhibitor, single point]"
10,CCOc1ccccc1C(=O)Nc1ccsc1C(=O)OC,"inconclusive: 3.55 µM [inhibitor, full curve]"
11,O=C(NCc1ccccc1)c1c(Cl)nc(Cl)c(Cl)c1Cl,"inconclusive: 15.8 µM [inhibitor, single point]"
12,Oc1cc(NCCc2cccnc2)cc2cccnc12,"inconclusive: 15.8 µM [inhibitor, single point]"
13,O=C(NCCOCCn1c(=O)oc2ccccc21)Nc1ccc(Cl)cc1,inactive
14,O=C1NC[C@H](Cc2ccccc2)N(C[C@H]2CCCN2C[C@H](Cc2ccccc2)N2C[C@H](Cc3ccccc3)N(CCc3ccccc3)C(=O)C2=O)C1=O,"inconclusive: 15.8 µM [inhibitor, single point]"
15,O=C1c2[nH]nc(-c3ccc(Br)cc3)c2C(c2cccc(O)c2)N1c1ccc(Cl)cc1 (stereo not given),inactive
16,COc1cc(C)ccc1OCCn1c(-c2ccc(Cl)cc2)nc2ccccc2c1=O,inactive
17,CNC(=O)COc1ccc(NC(=O)CCn2nc(-c3ccc(C)cc3)c3ccccc3c2=O)cc1,inactive
18,COc1cc(OC)c(NS(=O)(=O)c2cc(-c3cnc(C)o3)ccc2OC)cc1Cl,"inconclusive: 7.94 µM [inhibitor, partial curve, poor fit]"
19,CC1(C)CC(=O)C2=C(C1)Oc1ncn(CCCO)c(=N)c1C2c1ccccc1 (stereo not given),inactive
20,CCOc1ccc(OCC)c(NC(=O)CCC(=O)N2CCOc3ccccc32)c1,inactive
21,Cc1ccccc1OCCOc1ccc([N+](=O)[O-])cc1/C=N/n1cnnc1,"inconclusive: 3.16 µM [inhibitor, partial curve, poor fit]"
22,Cc1ccc(N)cc1O,inactive
23,COC1=CC(=O)c2nc(Cl)ccc2C1=O,"inconclusive: 4.47 µM [inhibitor, full curve]"

row,Structure (SMILES),Potency
1,C(=C\c1ccccc1)/CSc1nnc(-c2ccccc2)n1Cc1ccco1,"inconclusive: 3.55 µM [inhibitor, full curve, poor fit]"
2,O=C(CSc1ncnc2nc[nH]c12)N1CCOCC1,inactive
3,CCCCCCC=C1CCC(CN2CCCC2)C1=O (stereo not given),"inconclusive: 20 µM [inhibitor, single point]"
4,Oc1ccc(Nc2nc3ccccc3nc2Nc2ccc(O)cc2)cc1,"inconclusive: 5.62 µM [inhibitor, full curve, poor fit]"
5,Cc1c(NC(=O)c2ccc([N+](=O)[O-])o2)cccc1-c1nc2ncccc2o1,"inconclusive: 2.51 µM [inhibitor, full curve, poor fit]"
6,Oc1c(N=Nc2ccccn2)ccc2ccccc12,inactive
7,COc1ccc(NS(=O)(=O)c2cc(N)ccc2N2CCCC2)cc1,"inconclusive: 17.8 µM [inhibitor, single point]"
8,N#CC1=C(N)NC(=S)C(C(N)=O)C1c1ccc(Cl)cc1Cl (stereo not given),"inconclusive: 25.1 µM [inhibitor, single point]"
9,O=C(CCl)Nc1cccc(S(=O)(=O)NC2=NCCC2)c1,"inconclusive: 10 µM [inhibitor, partial curve, poor fit]"
10,CCOC(=O)c1c(C)oc2ccc(N(C(=O)c3ccncc3)S(=O)(=O)c3ccc(Br)cc3)cc12,"inconclusive: 8.91 µM [inhibitor, partial curve]"
11,Cc1csc[n+]1CCC1CCCCC1,inactive
12,O=c1[nH][nH]c(-c2ccccc2O)c1C(C[N+](=O)[O-])c1ccc(Br)cc1 (stereo not given),"inconclusive: 35.5 µM [inhibitor, single point]"
13,COc1c2ccoc2c(OC(C)=O)c2oc(C)cc(=O)c12,inactive
14,Cc1cc(S(=O)(=O)c2ccc(Cl)cc2)nc(S(=O)(=O)c2ccc(Cl)cc2)c1C#N,"inconclusive: 4.47 µM [inhibitor, full curve]"
15,Cc1ccccc1C(C(=O)NC1CCCC1)N(C(=O)Cc1cccs1)c1ccc2c(c1)OCCO2 (stereo not given),inactive
16,O=c1[nH]c2c(s1)C(c1ccc(O)cc1)C1C3CCC(C3)C1S2 (stereo not given),"inconclusive: 17.8 µM [inhibitor, single point]"
17,N#CSC(c1ccccc1)c1nc2ccccc2[nH]c1=O (stereo not given),"inconclusive: 35.5 µM [inhibitor, single point]"
18,Cc1ccc(Cl)cc1NC(=O)CC(O)(C(F)(F)F)C(F)(F)F,inactive
19,CCc1cccc(N(C(=O)c2csnn2)C(C(=O)NC(C)(C)C)c2ccccn2)c1 (stereo not given),"inconclusive: 3.16 µM [inhibitor, single point]"
20,S=C1SCN(Cc2ccccn2)CN1Cc1ccco1,"inconclusive: 35.5 µM [inhibitor, single point]"
21,Cc1cc(C)c(S(=O)(=O)c2ccccc2)c(Cl)n1,inactive
22,O=C(NCc1ccc(F)c(F)c1)C1Cc2c(-c3ccc4c(c3)OCO4)ccnc2O1 (stereo not given),"inconclusive: 2.51 µM [inhibitor, full curve]"
